Consider 132 sequences from the BET-seq Pho4 binding data (Le et al. 2018).

Some of the results follow. The energies were worked out here from pooled read counts, against the library average; single values are noisy.

The target in this experiment is T1, Pho4 (S. cerevisiae) (UniProt P07270).
T1 sequence: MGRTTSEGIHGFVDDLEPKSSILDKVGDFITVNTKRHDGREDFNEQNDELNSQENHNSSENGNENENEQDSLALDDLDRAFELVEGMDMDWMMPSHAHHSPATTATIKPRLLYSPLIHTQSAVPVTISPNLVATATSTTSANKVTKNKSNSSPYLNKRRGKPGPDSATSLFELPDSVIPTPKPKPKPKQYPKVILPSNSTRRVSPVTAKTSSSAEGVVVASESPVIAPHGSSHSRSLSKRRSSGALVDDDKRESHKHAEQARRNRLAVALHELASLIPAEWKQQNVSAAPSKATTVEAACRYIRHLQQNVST
The experiment can be described thus: relative binding free energy (BET-seq); higher = weaker binding. Conditions: reference: library average.
In the case of CTGTTCACGTGTGCTT, the “relative binding free energy” value was found to be 0.25 kcal/mol. Take TAACGCACGTGGTGGG: the “relative binding free energy” value is -0.2 kcal/mol. Consider GGGGACACGTGTTGGC, for which the “relative binding free energy” value turned out to be 0.04 kcal/mol. As for CGACTCACGTGGGCGG, the figure is 0.16 kcal/mol.

In the case of AAATTCACGTGAGTGT, the “relative binding free energy” value was determined as 0.43 kcal/mol. On to AATCGCACGTGGGGGA, for which the “relative binding free energy” value is -0.19 kcal/mol. With TGTTTCACGTGCAGAT, the “relative binding free energy” value is 0.27 kcal/mol. Take TTTAGCACGTGGGCAT: the “relative binding free energy” value was -0.22 kcal/mol.

As for TTTCGCACGTGAGATT, the “relative binding free energy” value was 0.23 kcal/mol. With TGGAGCACGTGGGGCG, the “relative binding free energy” value is -0.2 kcal/mol. On to TCGGGCACGTGGACGT, for which the “relative binding free energy” value is -0.15 kcal/mol.

Take ACTGGCACGTGGTTGA: the “relative binding free energy” value is -0.14 kcal/mol. Consider CAGGGCACGTGATAGT, for which the “relative binding free energy” value was -0.08 kcal/mol.

For the sequence TGGATCACGTGTTTAC, the “relative binding free energy” value was found to be 0.1 kcal/mol. As for TGTGTCACGTGATGGC, the “relative binding free energy” value came to 0.3 kcal/mol. As for TCAGGCACGTGGGAAA, the figure is 0.05 kcal/mol; as for GGTTCCACGTGAATGG, 0.33 kcal/mol; as for AATGGCACGTGAAGAT, 0.28 kcal/mol. Turning to TTAAACACGTGTGCGT, the “relative binding free energy” value amounted to 0.03 kcal/mol. For GGAGGCACGTGTTGGC, the “relative binding free energy” value is -0.01 kcal/mol. On to TTAAGCACGTGTTAGC, for which the “relative binding free energy” value is -0.01 kcal/mol. For the sequence TTACGCACGTGTTATG, the “relative binding free energy” value is -0.16 kcal/mol. Turning to CGTATCACGTGGGGTC, the “relative binding free energy” value was 0.02 kcal/mol.

In the case of TATCACACGTGGTGTG, the “relative binding free energy” value is -0.07 kcal/mol. As for CAGGGCACGTGGGAAA, the figure is -0.17 kcal/mol; as for TAGTGCACGTGTATCG, 0.05 kcal/mol; as for GTAGTCACGTGAAATG, 0.24 kcal/mol. Consider TGTTGCACGTGAAAAT, for which the “relative binding free energy” value came out at 0.31 kcal/mol. With GGTTTCACGTGACGGT, the “relative binding free energy” value is 0.22 kcal/mol. As for GGAGACACGTGCTTGG, the figure is -0.01 kcal/mol. For the sequence TTCTGCACGTGGTTCG, the “relative binding free energy” value was -0.02 kcal/mol.

Take ATAGTCACGTGGGATA: the “relative binding free energy” value was found to be 0.14 kcal/mol. Turning to CGGGGCACGTGGCGGA, the “relative binding free energy” value was -0.2 kcal/mol. In the case of TATGGCACGTGTTTAA, the “relative binding free energy” value is -0.04 kcal/mol.

With TTGTCCACGTGCTGTG, the “relative binding free energy” value was -0.14 kcal/mol. With TAAGCCACGTGGTGGG, the “relative binding free energy” value was -0.25 kcal/mol. TGGGTCACGTGGCGCC: the “relative binding free energy” value came out at 0.16 kcal/mol.

GTTTTCACGTGTATCT: the “relative binding free energy” value came out at 0.31 kcal/mol.

As to GGAATCACGTGAGGCT, the “relative binding free energy” value worked out at 0.3 kcal/mol. As to CTTATCACGTGTGGTT, the “relative binding free energy” value is 0.25 kcal/mol.

As to GGCTGCACGTGGCTGG, the “relative binding free energy” value was 0.02 kcal/mol.

In the case of CGAAGCACGTGAGGTT, the “relative binding free energy” value worked out at 0.22 kcal/mol. Take TTTTACACGTGTGACG: the “relative binding free energy” value is 0.24 kcal/mol. On to AGTGTCACGTGTAGAA, for which the “relative binding free energy” value was -0.08 kcal/mol. As for AGTGTCACGTGCTGTG, the figure is -0.01 kcal/mol; as for TGTTACACGTGGTGAG, 0.04 kcal/mol.

Take ATGTGCACGTGGTGCG: the “relative binding free energy” value is -0.19 kcal/mol. As to ATTATCACGTGAAAAG, the “relative binding free energy” value came out at 0.55 kcal/mol. Turning to CGTAGCACGTGTTGTT, the “relative binding free energy” value was -0.09 kcal/mol. Take GTTACCACGTGTGTTA: the “relative binding free energy” value was 0.08 kcal/mol. Regarding TGTATCACGTGATACT, the “relative binding free energy” value is 0.23 kcal/mol. As for GTGTGCACGTGGGGTT, the figure is -0.05 kcal/mol. Consider TAGTTCACGTGGGGGC, for which the “relative binding free energy” value worked out at 0.2 kcal/mol.

With TTGTGCACGTGCTCGG, the “relative binding free energy” value was -0.1 kcal/mol. As for CGTATCACGTGCTGTT, the figure is 0.11 kcal/mol; as for TATAACACGTGATGTG, 0.08 kcal/mol.

As to CGTTCCACGTGGTGTT, the “relative binding free energy” value is -0.01 kcal/mol. TGGCTCACGTGCTGGG: the “relative binding free energy” value came out at 0.06 kcal/mol. For the sequence TGCGTCACGTGGGGCA, the “relative binding free energy” value was -0.1 kcal/mol. GGTGGCACGTGATCGT: the “relative binding free energy” value was found to be 0.01 kcal/mol. Take TCTCTCACGTGAGGGG: the “relative binding free energy” value came out at 0.45 kcal/mol. As for AGTTTCACGTGTATTT, the figure is 0.33 kcal/mol; as for TTAGTCACGTGTTAGA, 0.19 kcal/mol.

In the case of GGAGTCACGTGAGGGC, the “relative binding free energy” value turned out to be 0.36 kcal/mol. On to TTCGTCACGTGTGAAG, for which the “relative binding free energy” value is 0.11 kcal/mol. As for ATTAACACGTGAGTTT, the figure is 0.3 kcal/mol. TTCGTCACGTGGGAGA: the “relative binding free energy” value was -0.1 kcal/mol. AGTAACACGTGGGCGA: the “relative binding free energy” value was -0.05 kcal/mol. As for AGAGTCACGTGCTGTG, the figure is 0.07 kcal/mol. Regarding GTCTTCACGTGGATTA, the “relative binding free energy” value was determined as 0.27 kcal/mol. For GACTGCACGTGTGTAG, the “relative binding free energy” value is -0.02 kcal/mol.

Consider GGGAGCACGTGCGTTA, for which the “relative binding free energy” value is -0.06 kcal/mol. On to GGATGCACGTGGGGAC, for which the “relative binding free energy” value is -0.1 kcal/mol. For GGGCACACGTGTATGG, the “relative binding free energy” value is 0.12 kcal/mol.

Take GGAATCACGTGCGGGG: the “relative binding free energy” value came out at 0.04 kcal/mol. Turning to TCTTACACGTGTTGTG, the “relative binding free energy” value came out at 0.02 kcal/mol. Take GGGGTCACGTGCAGAG: the “relative binding free energy” value is 0.12 kcal/mol.

Regarding TCGGACACGTGTTGTA, the “relative binding free energy” value was found to be 0.11 kcal/mol. As for GATCTCACGTGGGTGG, the “relative binding free energy” value is 0.16 kcal/mol. As for TAGGACACGTGAGGGG, the “relative binding free energy” value came out at 0.24 kcal/mol. Consider TTTGGCACGTGAGACG, for which the “relative binding free energy” value is -0.05 kcal/mol.

Turning to AGGAGCACGTGCTGGG, the “relative binding free energy” value was -0.01 kcal/mol. On to ATTTGCACGTGAAGTT, for which the “relative binding free energy” value came to 0.34 kcal/mol.

On to GGTAACACGTGTAATG, for which the “relative binding free energy” value was determined as 0.1 kcal/mol. With TGTTTCACGTGCGATA, the “relative binding free energy” value worked out at 0.2 kcal/mol.

With AGAGACACGTGGAGTT, the “relative binding free energy” value amounted to 0.09 kcal/mol. Consider CGGATCACGTGAGAGT, for which the “relative binding free energy” value is 0.35 kcal/mol. Take ATTGTCACGTGTTCGA: the “relative binding free energy” value turned out to be 0 kcal/mol. CACGGCACGTGTGTTT: the “relative binding free energy” value was -0.05 kcal/mol. As for ATTGTCACGTGATGCT, the figure is 0.17 kcal/mol; as for TTTGTCACGTGTATTG, 0.07 kcal/mol; as for TTAAGCACGTGTACTT, -0.01 kcal/mol. Consider CAGATCACGTGAAGGG, for which the “relative binding free energy” value was found to be 0.36 kcal/mol.

Turning to TAGTGCACGTGCATGG, the “relative binding free energy” value is -0.08 kcal/mol. With CAGTGCACGTGGAGTA, the “relative binding free energy” value is -0.05 kcal/mol. As for AAGTGCACGTGGGTGT, the “relative binding free energy” value was -0.2 kcal/mol. TCGTTCACGTGGAGAT: the “relative binding free energy” value turned out to be 0.29 kcal/mol. As to GAAAGCACGTGGTCGT, the “relative binding free energy” value was -0.09 kcal/mol. Take CAGCGCACGTGTGGGG: the “relative binding free energy” value was -0.13 kcal/mol. On to TCTTTCACGTGAGTCG, for which the “relative binding free energy” value is 0.51 kcal/mol.

Take GCATGCACGTGGTTGT: the “relative binding free energy” value is -0.1 kcal/mol.

TGTAACACGTGGTTTC: the “relative binding free energy” value is -0.05 kcal/mol. As to ATTAGCACGTGTTGGT, the “relative binding free energy” value was 0 kcal/mol.

TTATACACGTGAGGTT: the “relative binding free energy” value worked out at 0.24 kcal/mol.

On to AAATTCACGTGTTATA, for which the “relative binding free energy” value was 0.17 kcal/mol. As for TTCGACACGTGAGGAG, the figure is 0.23 kcal/mol; as for TCGATCACGTGGGTAT, -0.04 kcal/mol; as for ATTGGCACGTGCCTGG, -0.17 kcal/mol. In the case of AGGGTCACGTGTACGG, the “relative binding free energy” value worked out at 0.01 kcal/mol. Take TGGGTCACGTGTGTTT: the “relative binding free energy” value worked out at 0.21 kcal/mol. As for TAAGACACGTGAAAGT, the figure is 0.27 kcal/mol; as for CTTGTCACGTGTAGGC, 0.25 kcal/mol; as for ACTGGCACGTGAGGCG, 0.15 kcal/mol. As for CATTGCACGTGTAGGG, the figure is 0.06 kcal/mol.

ATTTTCACGTGTCCGG: the “relative binding free energy” value worked out at 0.16 kcal/mol. As for TCTGGCACGTGGGCAG, the figure is -0.23 kcal/mol. As for TTTCGCACGTGGGTCA, the figure is -0.2 kcal/mol; as for TAGTGCACGTGGGCCT, -0.29 kcal/mol. As for TTTGCCACGTGGGGCA, the figure is -0.25 kcal/mol. As to AGAGCCACGTGTTGTA, the “relative binding free energy” value was -0.04 kcal/mol.

In the case of ACTCGCACGTGGGGGG, the “relative binding free energy” value was -0.3 kcal/mol. Regarding AGCTACACGTGTTTGG, the “relative binding free energy” value is -0.02 kcal/mol. On to TATTTCACGTGTTTAG, for which the “relative binding free energy” value stood at 0.36 kcal/mol. AGGTGCACGTGGGTGA: the “relative binding free energy” value is -0.22 kcal/mol. For TCGGGCACGTGGTTGC, the “relative binding free energy” value is -0.04 kcal/mol. In the case of CTATGCACGTGATTAG, the “relative binding free energy” value amounted to 0.11 kcal/mol.

As for GAATTCACGTGTTGGA, the “relative binding free energy” value was 0.32 kcal/mol.

In the case of CTGTCCACGTGGTGGA, the “relative binding free energy” value is -0.03 kcal/mol. As for AGGTCCACGTGAGTAT, the figure is 0.3 kcal/mol; as for GGTTTCACGTGAGGTT, 0.38 kcal/mol; as for ATATTCACGTGGGGGG, 0.14 kcal/mol. Consider TCTTACACGTGAAGGT, for which the “relative binding free energy” value turned out to be 0.37 kcal/mol.
